Reference: PubChem BioAssay (NCI)
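Cells were grown in 96-well plates and exposed to each compound for 48 hours at five concentrations; endpoints were interpolated linearly between bracketing concentrations, or set to the highest concentration if not reached. At the GI50, growth is halved.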 For part of its entries the source gives two or more results. The other results are left out here. An entry can have further records. The values listed for one entry repeat one measurement across runs, samples, wells, individuals or studies. Marks in square brackets tell the records apart. The letters are not those of the source and start again with each entry.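 TGI is the concentration that stops growth completely.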

System: MDA-MB-468 breast
Assay: growth of human tumour cells (NCI), 48 h

S=c1nc[nH]c2nc[nH]c12
GI50: 3.04 µM [sample A, 1 test] and 204 nM [sample B, 1 test]
TGI: > 750 µM [sample A, 1 test] and 970 nM [sample B, 1 test]
